The experiment concerns PDC KRAS tumor spheroids with HUVEC/MSC, viability. Briefly: Anticancer human tumor 349418-098-R-PDC patient-derived lung adenocarcinoma cell line growth inhibition [KRAS2]. Conditions: for IC50: compound alone; for viability, T/C: stronger effect = lower value. An excerpt: Multicellular complex tumor spheroid response to RAS pathway inhibitors in combination with a targeted agents in patient-derived cell lines with oncogenic KRAS variants from multiple cancer types
A high-throughput screen of multi-cell type tumor spheroids was designed to identify active combinations of targeted small molecules and KRAS pathway inhibitors. Complex spheroids include a stromal component modeled by human endothelial cells (HUVEC) and fibroblasts modeled by human mesenchymal stem cells (MSCs). The concentration ranges selected for each drug and investigational agent were based upon clinically achievable concentrations if the clinical Cmax of the agent was known.
Compounds. The drugs and investigational agents: BI-3406 (NSC825286), BAY-293 (NSC824723), batoprotafib (TNO155; NSC825523), sotorasib (AMG 510; NSC818433), MRTX1257 (NSC819558), elimusertib (BAY 1895344; NSC800525), molibresib (GSK525762; NSC774829), temuterkib (LY3214996; NSC803410), venetoclax (NSC766270), alisertib (NSC759677), olaparib (NSC753686), talazoparib (NSC767125), erdafitinib (NSC781556), ipatasertib (NSC767898), cabozantinib (NSC761068), nintedanib (NSC756659), abemaciclib (NSC768073), docetaxel (NSC628503), trametinib (NSC758246), and sapanisertib (NSC764658) were obtained from the National Cancer Institute (NCI) Developmental Therapeutics Program Chemical Repository. The FDA-approved anticancer drug set is available from the Developmental Therapeutics Program. […] The stock solutions were prepared in dimethyl sulfoxide (DMSO, Sigma-Aldrich, St. Louis, MO, cat. D2650) at 800-fold the tested concentration and stored at -70 degrees C prior to their use. All drugs and investigational agents were tested over a range starting from a high concentration at or near the clinical Cmax and decreasing in half-log increments. If the clinical Cmax for an agent had not been determined, the highest concentration tested was 10 microM.
Cell Culture. All cells were maintained in an incubator at 37 degrees C and 5% CO2 with 95% humidity. The PDC lines were cultured according to standard operating procedures established by the NCI PDMR (https://pdmr.cancer.gov/sops/default.htm). Briefly, all PDCs were thawed and cultured in Matrigel-coated flasks prepared with a working solution of 1X Ham's F-12 nutrient mix, without supplementation (Invitrogen, Waltham, MA, cat. 11765054), 100 U/mL penicillin-streptomycin (Invitrogen, cat. 15140122), and 2.5% Matrigel (Corning Inc., Corning, NY, cat. 354248) for the first three passages. All PDCs were cultured in complete DMEM/F-12 media containing advanced DMEM/F-12 (Invitrogen, cat. 12634028), 4.9% defined fetal bovine serum, heat inactivated (HyClone Laboratories Inc., Logan, UT, cat. SH30070.03HI), 389 ng/mL hydrocortisone (Sigma-Aldrich, cat. H4001), 9.7 ng/mL human EGF recombinant protein (Invitrogen, cat. PHG0313), 23.4 microg/mL adenine (Sigma-Aldrich, cat. A2786), 97.3 U/mL penicillin-streptomycin (Invitrogen, cat. 15140122), 1.9 mM L-glutamine (Invitrogen, cat. 25030081), and 9.7 microM Y-27632 dihydrochloride (Tocris Bioscience, Bristol, United Kingdom, cat. 1254). The PDCs were cultured in complete DMEM/F12 media without 9.7 microM Y-27632 dihydrochloride for at least two passages prior to the screen. The established cell line HOP-62 was cultured in RPMI 1640 medium, HEPES (Invitrogen, cat. 22400105) with 10% defined fetal bovine serum (HyClone Laboratories Inc., cat. SH30070.03) and 2 mM L-glutamine (Invitrogen, cat. 25030081). The pooled donor HUVEC were cultured in endothelial cell growth medium 2 (PromoCell, Heidelberg, Germany, cat. C-22011) and the hMSC were cultured in mesenchymal stem cell growth medium 2 (PromoCell, cat. C-28009). For all experiments, HUVEC and hMSC were used at passages </=5, while the malignant cell lines were used at passages </=15. […]

A number of entries come with more than one value. The other results are left out here. An entry can have further records. The values listed for one entry are repeats (runs, samples, wells, individuals or studies). Marks such as (2×) give the number of equal values in this list. Marks such as [2022-09] give the month of the run.

Broadly, the IC50 is the midpoint of a concentration-inhibition curve.
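Further: spheroids exposed to compounds for seven days before readout.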

On to `O=C(c1cc(Cc2n[nH]c(=O)c3ccccc23)ccc1F)N1CCN(C(=O)C2CC2)CC1`, for which the half-inhibitory concentration (IC50) is listed as 405 nM, 283 nM, 5.03 µM, 4.63 µM, 2.92 µM. The viability, T/C (compound alone 0.316 µM) is given as 53.1, 43.7, 77.1, 94.3, 75%. The viability, T/C (compound alone 1 µM) is listed as 29.7, 30.4, 88.6, 81.1, 72%. For the same compound, the viability, T/C (compound alone 3.16 µM) was 18.5, 19.6, 63.4, 60.1, 43.4%. Further, where the note is “compound alone 10 µM”, the viability, T/C was 10.9, 12.8, 31.7, 30.7, 43.9%.
On to `COC(=O)c1ccc2c(C(=Nc3ccc(N(C)C(=O)CN4CCN(C)CC4)cc3)c3ccccc3)c(O)[nH]c2c1`, for which the IC50 was 722 nM, 81.5 nM, 763 nM, 1.28 µM, 1.49 µM. Further, the viability, T/C (compound alone 0.0316 µM) is 53.7, 63.8, 97.5, 107, 110%. The viability, T/C (compound alone 0.1 µM) is 59.5, 38.4, 74.1, 76.1, 85.6%. Moreover, for the setting “compound alone 0.316 µM”, the viability, T/C is recorded as 63.4, 42.7, 73.2, 79.4, 95.8%. The viability, T/C (compound alone 1 µM) is recorded as 44.8, 32, 43.8, 65.2, 63.7%.
With `CNCc1ccccc1-c1csc(C(C)Nc2nc(C)nc3cc(OC)c(OC)cc23)c1` (stereo unspecified), the viability, T/C is 114, 102 (2×), 107, 96.5, 125, 126, 97.8, 115, 99, 101, 99.7 (2×), 92.4, 119, 96.4, 86.9% (compound alone 0.1 µM); 114, 104, 80.2, 70.4, 101, 95.1, 99.7, 115, 100, 98.5, 94.4, 108, 124, 113, 96.2, 92.9, 102% (compound alone 0.316 µM); 111, 98.4, 113, 75.1, 78.5, 98.6, 101, 91.9, 80.6, 84.6, 81.1, 40.3, 54.9, 58.3, 54, 31.9, 28.4% (compound alone 1 µM); 110, 88, 0.17, 0.12, 0.16, 0.1, 0.09 (2×), 0.08 (2×), 0.07, 0.28, 0.05, 0.06% (compound alone 3.16 µM). Further, under “run of 07/12/2021”, the IC50 was 1.47 µM and 1.77 µM and 6.01, 5.2, 1.78, 1.53 µM [2021-07].
`COc1cc2nc(C)nc(NC(C)c3cc(N)cc(C(F)(F)F)c3)c2cc1OC1CCOC1` (stereo unspecified): the viability, T/C was 74, 91.1, 84.2, 85.3, 99.5, 105, 101, 127, 102 (2×), 93.6, 100, 95.7, 7.97, 92.8, 113% (compound alone 0.1 µM); 77.5, 80.2, 88.8, 106, 108, 97.3 (2×), 101 (2×), 112, 95.4, 99.9, 94.8, 65.8, 99.5, 95.8% (compound alone 0.316 µM); 91.6, 101 (4×), 99.5, 83.6, 109, 87.3, 123, 96.5, 86.1, 95.2, 90.6, 162, 97.4% (compound alone 1 µM); 49.5, 64.4, 80.5, 82.5, 90.5, 93.6, 87.5, 120, 89.9, 87.9, 87.2, 71.6, 88.4, 135, 81.8, 85.5% (compound alone 3.16 µM); 57.2, 75.2, 99.4, 31, 20.1, 17.2, 30.5, 60.6, 39, 29.2, 41, 21.6, 17.9, 35.9, 30.7, 32.6% (compound alone 10 µM). For the same compound, the IC50 (run of 07/12/2021) is > 10 µM, 6.53 µM, 6.04 µM, 6.11 µM; the IC50 (run of 07/19/2021) is listed as 6.64 µM, > 10 µM, 7.79 µM, 6.67 µM, 8 µM; the IC50 (run of 07/26/2021) is on record as 5.2 µM, 5.9 µM, < 100 nM, 6.47 µM, 6.78 µM.
As for `C=CC(=O)N1CCN(c2nc(=O)n(-c3c(C)ccnc3C(C)C)c3nc(-c4c(O)cccc4F)c(F)cc23)C(C)C1` (stereo unspecified), the viability, T/C reads like this: (compound alone 0.1 µM) 119, 94.6, 100 (2×), 96.5, 116, 133, 102, 96.6, 97.7 (2×), 99.3, 109, 81.5, 105, 107, 82.5%; (compound alone 0.316 µM) 119, 98, 99, 97.6, 124, 15.2, 99.8, 91.3, 93.8, 92.3, 83.3, 108, 98.8, 95.8, 87, 86.4, 96.4%; (compound alone 1 µM) 101, 98.4, 85.1, 79, 114, 69.7, 96.2, 70.4, 79.3, 83, 82, 88.7, 90.5, 92.7, 78.4, 103, 93.1%; (compound alone 3.16 µM) 85.4, 68.8, 79.1, 53.9, 91.5, 50.4, 70.2, 53.2, 63.7, 66.5, 54.9, 69.9, 73.9, 74, 67.6, 61.2, 71.6%. Moreover, the IC50 (run of 07/12/2021) is on record as 8.7 µM, 6.45 µM, 6.44 µM, 3.79 µM, 9.5 µM, 288 nM.
For the compound `COc1cc2nccc(Oc3ccc(NC(=O)C4(C(=O)Nc5ccc(F)cc5)CC4)cc3)c2cc1OC`, the viability, T/C reads like this: (compound alone 1 µM) 82.2, 80.2, 87.6, 12.8, 95.2%; (compound alone 10 µM) 22.1, 19, 18.2, 107, 25.2%.
Regarding `CC1OCC2(CCN(c3cnc(Sc4ccnc(N)c4Cl)c(N)n3)CC2)C1N` (stereo unspecified), the viability, T/C (compound alone 0.1 µM) is 83, 89.8, 103, 92, 88.5, 119, 102, 105, 97, 99.6, 104, 99.2, 76.7, 80, 112, 121, 84.7, 114, 79.9%; the viability, T/C (compound alone 0.316 µM) was 93.5, 92.3, 97 (2×), 105, 107, 121, 101 (2×), 92.2, 95.5, 98.3, 83.9, 84.3, 87.3, 96.7, 102, 110, 93.8%; the viability, T/C (compound alone 1 µM) was 96.1, 81.5, 109, 80.2, 108, 107, 97, 99.5, 91.3, 96.9, 103 (2×), 97.4, 105 (2×), 89.3, 92.4, 116, 94.7%; the viability, T/C (compound alone 3.16 µM) is 28.5, 63.3, 96.8, 83.1 (2×), 82.1, 107, 98.4, 86.7, 87.8, 93.7, 87.3, 98.6, 95.5, 87.5, 114, 100, 86.2, 94.4, 94.9%; the viability, T/C (compound alone 10 µM) is 81.5 (2×), 84.4, 94.4, 71.1, 86, 98, 80, 79.6, 70.1, 82.4, 94.6, 99.7, 68, 80.6, 94.5, 104, 84.5, 91.7, 85.2%.
With `COc1cc(OC)cc(N(CCNC(C)C)c2ccc3ncc(-c4cnn(C)c4)nc3c2)c1`, the viability, T/C (compound alone 0.316 µM) is given as 94.5, 80.1, 70.2, 104%.
For the compound `C=CC(=O)N1CCN(c2nc(OCC3CCCN3C)nc3c2CCN(c2cccc4cccc(C)c24)C3)CC1CC#N` (stereo unspecified), the viability, T/C by setting is: (compound alone 0.0316 µM) 110, 97.6, 102 (2×), 68.8, 104, 91, 109, 99.8, 92.2, 97.9, 103, 112, 82.7, 96.2, 91.9, 95.4%; (compound alone 0.1 µM) 125, 101 (2×), 80.1, 98.7, 115, 106, 97, 107, 102, 86.9, 92.7, 103, 98, 97.5, 89.5, 110%; (compound alone 0.316 µM) 114, 82.8, 74.5, 50.2, 116, 104 (2×), 58.1, 110, 85.3, 92.4, 85.7, 108, 79, 95.4, 90.6, 90.1%; (compound alone 1 µM) 104, 90.5, 50.2, 32.6, 90.6, 77.5 (2×), 92.3, 74.7, 80.2, 76.4, 69.3, 73.5, 64.2, 66.3, 63.2, 65.2%; (compound alone 3.16 µM) 104, 0.14 (2×), 0.1 (2×), 0.24, 0.09, 0.18, 0.15, 0.26, 0.27, 0.13, 0.19, 1.71, 0.12%. Further, under “run of 07/12/2021”, the concentration for half-maximal inhibition (IC50) is 468 nM and > 3.16 µM, 1.68 µM, 890 nM, 1.5 µM [2021-07].
Turning to `CC1COCCN1c1cc(-c2ccnn2C)c2ccnc(-c3ccn[nH]3)c2n1` (stereo unspecified), the concentration for half-maximal inhibition (IC50) is 28.6 nM, 28.2 nM, 41.3 nM, < 10 nM, 25.2 nM. Further, where the note is “compound alone 0.01 µM”, the viability, T/C is given as 105, 103, 107, 9.53, 121%. Moreover, the viability, T/C (compound alone 0.0316 µM) is reported as 44.8, 44.3, 61.1, 6.57, 32.1%.
As to `CCNC(=O)CC1N=C(c2ccc(Cl)cc2)c2cc(OC)ccc2-n2c(C)nnc21` (stereo unspecified), the viability, T/C (compound alone 0.0316 µM) is 79.6, 92.9, 99.3, 78.9, 72.3%.
On to `CCN1CCN(Cc2ccc(Nc3ncc(F)c(-c4cc(F)c5nc(C)n(C(C)C)c5c4)n3)nc2)CC1`, for which the half-inhibitory concentration (IC50) is listed as 6.97 nM, < 3.16 nM, 4.87 nM, 5.04 nM, 5.76 nM.
Take `CN(C)C/C=C/C(=O)Nc1cc2c(Nc3ccc(F)c(Cl)c3)ncnc2cc1O[C@H]1CCOC1`: the viability, T/C was 92.6, 99.4, 106, 80.5, 102% (compound alone 0.000316 µM); 84.6, 102, 108, 98.8, 119% (compound alone 0.00316 µM); 87.8, 101, 106, 91.2, 114% (compound alone 0.01 µM).
On to `COc1cc(Nc2ncc3c(n2)-c2ccc(Cl)cc2C(c2c(F)cccc2OC)=NC3)ccc1C(=O)O`, for which the viability, T/C (compound alone 0.0316 µM) was 14.2, 46.7, 47.3, 58.1, 53%.

(Values after PubChem BioAssay AID1963866 (Molecular Pharmacology Branch, DTP, NCI, 2024).)
